Data: PubChem BioAssay (Tox21)
Values joined by “and” are separate entries in the source; they are usually repeats but may differ in a detail not shown here. Equal entries are not always repeated. Inconclusive means that the source gave no clear call. Such entries were picked first, then a sample of the others. For part of these data: A potency beside an inconclusive call is a rough fit, not a confirmed value. The source holds several records for some structures; these can differ, active in one and inactive in another. Active and inactive are the calls of the source. Unless noted, calls come from the whole dose curve.

Legend:
[1] = target: Estrogen receptor beta (Homo sapiens) (UniProt Q92731); assay: qHTS assay to identify small molecule agonists of the estrogen receptor beta (ER-beta) signaling pathway (AID 1259377; active = well fitted activation curve with a large enough effect in the signal ratio in the repeat runs, not every such curve was filed as active; inconclusive = weak or mixed curves, or effect the other way; the % refers to the signal ratio; note: potency is the fitted concentration of half-maximal effect; for activation: % is set by controls: 0 for no effect and ±100 for the full control effect); conditions: ER-beta-UAS-bla HEK293T, beta-lactamase FRET ratio, 16 h; activation: at 92.4 µM (top of the series) unless noted
Sequence of UniProt Q92731 (Q92731 whole entry, looked up): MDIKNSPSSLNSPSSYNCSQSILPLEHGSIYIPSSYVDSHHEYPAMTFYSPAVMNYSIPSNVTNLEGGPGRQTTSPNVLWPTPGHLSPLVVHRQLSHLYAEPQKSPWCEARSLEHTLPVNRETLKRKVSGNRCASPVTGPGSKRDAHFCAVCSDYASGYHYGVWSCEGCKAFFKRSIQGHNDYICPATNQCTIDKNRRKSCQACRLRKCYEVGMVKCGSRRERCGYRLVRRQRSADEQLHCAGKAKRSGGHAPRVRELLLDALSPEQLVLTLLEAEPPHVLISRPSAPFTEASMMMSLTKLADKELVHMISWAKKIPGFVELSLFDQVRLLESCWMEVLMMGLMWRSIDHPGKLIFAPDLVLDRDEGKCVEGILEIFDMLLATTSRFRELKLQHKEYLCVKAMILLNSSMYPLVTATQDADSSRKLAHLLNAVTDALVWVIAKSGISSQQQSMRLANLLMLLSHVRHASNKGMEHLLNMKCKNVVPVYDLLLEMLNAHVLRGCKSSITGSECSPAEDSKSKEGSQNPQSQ
Outline: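 A UAS-controlled beta-lactamase reporter in ER-beta-UAS-bla HEK293T cells reports receptor activation. Compounds act for 16 hr at 37C in 2% charcoal-stripped serum, and a FRET substrate is read by fluorescence after 2 hours.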

[2] = qHTS assay to identify small molecule agonists of the progesterone receptor (PR) signaling pathway - cell viability counter screen (AID 1346799); note: nearly all actives have a fitted effect of over 45% in size; note: potency is the fitted concentration of half-maximal effect
Outline: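 Counter screen for cytotoxicity: compound-treated PR-UAS-bla HEK293T cells (16 hr, 37C, 5% CO2) were assayed with CellTiter-Glo, luminescence measured after 30 min at room temperature.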

[3] = target: Thyrotropin receptor (Homo sapiens) (UniProt P16473); assay: qHTS assay to identify small molecule antagonists of the thyroid stimulating hormone receptor (TSHR) signaling pathway (AID 1259385); conditions: TSHR-HEK293 cAMP HTRF, TSH-stimulated antagonist mode; activity change, negative = inhibition: at 92.4 µM (top of the series) unless noted; note: nearly all actives have a fitted effect of over 20% in size; note: potency is the fitted concentration of half-maximal effect
Sequence of UniProt P16473 (P16473 whole entry, looked up): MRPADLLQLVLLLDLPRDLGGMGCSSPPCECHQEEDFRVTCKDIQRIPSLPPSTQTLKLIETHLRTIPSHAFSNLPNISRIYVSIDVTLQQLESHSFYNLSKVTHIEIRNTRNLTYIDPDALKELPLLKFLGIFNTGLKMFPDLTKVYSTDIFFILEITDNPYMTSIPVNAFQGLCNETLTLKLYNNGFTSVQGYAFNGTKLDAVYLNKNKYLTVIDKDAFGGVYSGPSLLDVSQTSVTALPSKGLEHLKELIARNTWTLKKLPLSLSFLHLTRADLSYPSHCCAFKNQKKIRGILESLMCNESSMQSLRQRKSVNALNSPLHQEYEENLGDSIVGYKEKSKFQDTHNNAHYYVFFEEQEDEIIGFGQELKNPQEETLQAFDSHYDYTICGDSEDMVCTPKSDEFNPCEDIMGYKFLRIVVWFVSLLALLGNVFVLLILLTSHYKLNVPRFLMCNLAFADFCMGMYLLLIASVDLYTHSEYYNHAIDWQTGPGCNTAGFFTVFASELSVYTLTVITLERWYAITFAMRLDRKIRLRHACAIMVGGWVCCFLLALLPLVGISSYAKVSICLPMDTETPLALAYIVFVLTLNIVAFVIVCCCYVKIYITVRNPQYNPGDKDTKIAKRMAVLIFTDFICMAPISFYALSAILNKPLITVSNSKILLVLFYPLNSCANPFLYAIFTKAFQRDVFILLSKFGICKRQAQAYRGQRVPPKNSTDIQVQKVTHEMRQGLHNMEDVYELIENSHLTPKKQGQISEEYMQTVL
Outline: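 TSHR-HEK293 cells were plated and held 18 h at 37C/5% CO2, then given compound plus Ro20-1724 and stimulated with TSH at 1.5 ng/mL final. After 30 min at room temperature, cAMP was detected with cAMP-d2/anti-cAMP-cryptate (1 h) by fluorescence.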

[4] = qHTS assay to identify small molecule antagonists of the TGF-beta/Smad signaling pathway (AID 1346924; active = well fitted inhibition curve with a large enough effect in the signal ratio in the repeat runs, not every such curve was filed as active; inconclusive = weak or mixed curves; the % refers to the signal ratio; note: potency is the fitted concentration of half-maximal effect); conditions: SBE-bla HEK293T, TGF-beta/Smad reporter, beta-lactamase ratio; activity, negative = inhibition: at 76.8 µM (top of the series) unless noted
Outline: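 Read-out was FRET-substrate fluorescence (405 nm excitation; 460 and 530 nm emission) after 2 h at room temperature. Before that, cells carrying a Smad-binding-element beta-lactamase reporter in HEK 293T had been stimulated 5 h at 37 C with TGF-beta1 (0.25 ng/mL addition solution) in the presence of test compound.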

[5] = target: Progesterone receptor (Homo sapiens) (UniProt P06401); assay: qHTS assay to identify small molecule antagonists of the progesterone receptor (PR) signaling pathway (AID 1346795; active = well fitted inhibition curve with a large enough effect in the signal ratio in the repeat runs, not every such curve was filed as active; inconclusive = weak or mixed curves; the % refers to the signal ratio; note: potency is the fitted concentration of half-maximal effect; for activity change, negative = inhibition: % is set by controls: 0 for no effect and ±100 for the full control effect); conditions: PR-UAS-bla HEK293T, beta-lactamase FRET ratio, 16 h
Sequence of UniProt P06401 (P06401 whole entry, looked up): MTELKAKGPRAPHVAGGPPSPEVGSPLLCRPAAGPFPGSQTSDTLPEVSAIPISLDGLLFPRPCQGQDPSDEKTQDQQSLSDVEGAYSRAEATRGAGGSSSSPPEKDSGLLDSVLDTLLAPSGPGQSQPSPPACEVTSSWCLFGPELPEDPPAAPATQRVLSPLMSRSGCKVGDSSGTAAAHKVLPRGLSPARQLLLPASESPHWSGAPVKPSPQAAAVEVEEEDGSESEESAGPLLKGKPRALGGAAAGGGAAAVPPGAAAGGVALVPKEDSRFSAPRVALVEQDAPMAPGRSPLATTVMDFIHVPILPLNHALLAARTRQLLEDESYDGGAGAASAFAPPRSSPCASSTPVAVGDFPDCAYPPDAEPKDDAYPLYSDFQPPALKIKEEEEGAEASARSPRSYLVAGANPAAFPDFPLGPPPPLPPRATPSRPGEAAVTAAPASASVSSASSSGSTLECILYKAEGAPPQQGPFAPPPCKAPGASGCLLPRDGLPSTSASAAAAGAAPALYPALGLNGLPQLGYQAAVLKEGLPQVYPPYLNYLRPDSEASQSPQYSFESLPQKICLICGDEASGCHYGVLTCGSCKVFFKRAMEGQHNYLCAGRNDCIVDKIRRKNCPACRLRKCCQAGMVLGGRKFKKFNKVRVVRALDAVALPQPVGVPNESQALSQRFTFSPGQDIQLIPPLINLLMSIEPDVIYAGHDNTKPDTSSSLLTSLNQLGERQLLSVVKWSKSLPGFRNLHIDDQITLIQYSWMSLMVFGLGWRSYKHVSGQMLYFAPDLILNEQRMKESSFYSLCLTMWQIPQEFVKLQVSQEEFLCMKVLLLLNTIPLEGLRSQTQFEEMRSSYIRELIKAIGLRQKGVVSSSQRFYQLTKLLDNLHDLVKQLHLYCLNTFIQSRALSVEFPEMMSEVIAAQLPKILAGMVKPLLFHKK
Outline: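 HEK293T PR-UAS-bla reporter cells in charcoal-stripped serum (2%) received compound after a 6 hr settling period, followed by R5020 agonist at 1 nM final; 16 hr incubation preceded the FRET substrate step and fluorescence measurement.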

[6] = qHTS assay to identify small molecule agonists of the TGF-beta/Smad signaling pathway (AID 1346859; active = well fitted activation curve with a large enough effect in the signal ratio in the repeat runs, not every such curve was filed as active; inconclusive = weak or mixed curves; the % refers to the signal ratio; note: potency is the fitted concentration of half-maximal effect; for activation: % is set by controls: 0 for no effect and ±100 for the full control effect); conditions: SBE-bla HEK293T, TGF-beta/Smad beta-lactamase reporter, 5 h; activation: at 76.8 µM (top of the series) unless noted
Outline: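 Smad-responsive beta-lactamase reporter cells (HEK 293T) received compounds from DMSO stocks after overnight attachment, were incubated 5 hr, then treated 2 hr with FRET substrate before dual-emission fluorescence measurement (405 nm excitation).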

[7] = qHTS assay to identify small molecule antagonists of the progesterone receptor (PR) signaling pathway - cell viability counter screen (AID 1346798; active = well fitted curve in the direction sought with a large enough effect in the repeat runs; inconclusive = weak or mixed curves; inactive = no such curve, though single readings can be large; an effect the other way counts as inactive or inconclusive; note: nearly all actives have a fitted effect of over 50% in size; note: potency is the fitted concentration of half-maximal effect)
Outline: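 Same-well multiplex: after 16 hr at 37C with compound and R5020 stimulation, HEK293T cells carrying a UAS-bla reporter received LiveBLAzer substrate (2 hr RT), then CellTiter-Glo (30 min RT) for luminescent viability.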

[8] = target: Progesterone receptor (Homo sapiens) (UniProt P06401); assay: qHTS assay to identify small molecule agonists of the progesterone receptor (PR) signaling pathway (AID 1346784); conditions: PR-UAS-bla HEK293T, beta-lactamase FRET ratio, 16 h; activation: at 92.4 µM (top of the series) unless noted; note: nearly all actives have a fitted effect of over 30% in size; note: potency is the fitted concentration of half-maximal effect
Outline: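 Agonist mode, quantitative HTS format in a HEK 293T line expressing a UAS-controlled beta-lactamase reporter; 16 hr compound exposure at 37C in 2% charcoal-stripped FBS, then LiveBLAzer B/G FRET fluorescence.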

[9] = qHTS assay to identify small molecule agonists or antagonists of the thyroid stimulating hormone receptor (TSHR) signaling pathway - wild type cell line counter screen (AID 1259384); conditions: HEK293 wild type, cAMP HTRF counter-screen; cAMP activity change: at 92.4 µM (top of the series), stronger effect = higher value unless noted; note: % is set by controls: 0 for no effect and ±100 for the full control effect
Outline: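 Wild-type HEK293 cells were plated 18 h at 37 C/5% CO2, pin-dosed with compound plus Ro20-1724 medium, held 30 min at room temperature, then given cAMP-d2 and anti-cAMP-cryptate; fluorescence was read after 1 h. Fifteen concentrations, triplicate.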

[10] = qHTS assay to identify small molecule agonists of the estrogen receptor beta (ER-beta) signaling pathway - cell viability counter screen (AID 1259380; active = well fitted curve in the direction sought with a large enough effect in the repeat runs; inconclusive = weak or mixed curves; inactive = no such curve, though single readings can be large; an effect the other way counts as inactive or inconclusive; note: nearly all actives have a fitted effect of over 30% in size; note: potency is the fitted concentration of half-maximal effect)
Outline: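 Compounds dissolved in DMSO were pin-transferred onto ER-beta-UAS-bla HEK293T cells that had settled 6 hr, and exposure ran 16 hr at 37C. Following the reporter read, CellTiter-Glo luminescence after 30 min at room temperature indicated cytotoxicity.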

[11] = target: Estrogen receptor (Homo sapiens) (UniProt P03372); assay: qHTS assay to identify small molecule agonists of the estrogen receptor alpha (ER-alpha) signaling pathway in the presence of an antagonist (AID 1259383); note: top concentration of the series differs between compounds; % is set by controls: 0 for no effect and ±100 for the full control effect; nearly all actives have a fitted effect of over 15% in size
Sequence of UniProt P03372 (P03372 whole entry, looked up): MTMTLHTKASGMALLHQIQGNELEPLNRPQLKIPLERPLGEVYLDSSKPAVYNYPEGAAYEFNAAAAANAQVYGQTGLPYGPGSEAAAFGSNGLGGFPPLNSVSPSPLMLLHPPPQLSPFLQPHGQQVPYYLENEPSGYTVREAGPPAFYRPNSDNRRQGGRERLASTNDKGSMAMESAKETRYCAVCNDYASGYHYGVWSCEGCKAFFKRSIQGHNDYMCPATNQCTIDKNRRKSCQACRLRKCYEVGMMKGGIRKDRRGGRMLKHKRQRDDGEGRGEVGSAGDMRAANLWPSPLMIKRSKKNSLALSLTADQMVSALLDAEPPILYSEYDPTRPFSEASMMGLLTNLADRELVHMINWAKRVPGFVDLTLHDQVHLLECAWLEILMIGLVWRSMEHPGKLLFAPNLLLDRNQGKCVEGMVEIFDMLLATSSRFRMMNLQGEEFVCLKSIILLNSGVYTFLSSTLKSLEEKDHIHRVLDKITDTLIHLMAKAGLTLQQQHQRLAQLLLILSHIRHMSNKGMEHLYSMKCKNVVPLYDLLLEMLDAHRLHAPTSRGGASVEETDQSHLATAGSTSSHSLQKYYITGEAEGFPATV
Outline: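 Luminescent ERE-luciferase reporter, VM7Luc4E2 cells (endogenous ER-alpha); 10.0nM ICI-182,780 final; 15-point compound titration; 22hr at 37C; ONE-Glo, 30min RT.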

[12] = qHTS assay to identify small molecule antagonists of the estrogen receptor beta (ER-beta) signaling pathway - cell viability counter screen (AID 1259382; active = well fitted curve in the direction sought with a large enough effect in the repeat runs; inconclusive = weak or mixed curves; inactive = no such curve, though single readings can be large; an effect the other way counts as inactive or inconclusive; note: potency is the fitted concentration of half-maximal effect; nearly all actives have a fitted effect of over 55% in size)
Outline: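 CellTiter-Glo ATP luminescence measured after the LiveBLAzer read in the same wells; ER-beta-UAS-bla HEK293T cells, 16 hr compound treatment with 1nM 17-beta-estradiol agonist at 37C, 5% CO2.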

[13] = qHTS assay to identify small molecule agonists of the estrogen receptor alpha (ER-alpha) signaling pathway in the presence of an antagonist - cell viability counter screen (AID 1259386; active = well fitted curve in the direction sought with a large enough effect in the repeat runs; inconclusive = weak or mixed curves; inactive = no such curve, though single readings can be large; an effect the other way counts as inactive or inconclusive;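 note: potency is the fitted concentration of half-maximal effect; cells exposed to compounds for 22 h at 37 °C before the viability read; nearly all actives have a fitted effect of over 30% in size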)
Outline: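 Using estrogen-depleted VM7Luc4E2 cells, the 15-concentration compound series was applied together with 10.0nM ICI-182,780 and incubated 22hr at 37C/5% CO2. Cell viability was then scored by CellTiter-Fluor.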

[14] = activity change, negative = inhibition: at 92.4 µM (top of the series) unless noted
Tags give direction and shape of the fitted curve or compound fluorescence and quenching.

SMILES: CCCCCCCCCCCC(=O)OC
- Potency [1]: inconclusive: 30.6 µM [activator]
- Potency [2]: inconclusive: 2.73 µM [rising, partial curve]

SMILES: C=Cc1ccc(S(=O)(=O)O)cc1
- Potency [1]: inactive
- Potency [3]: active: 17.2 µM
- activity, negative = inhibition [4]: inconclusive: -10.7%

SMILES: Cc1ncc[nH]1
- Potency [1]: inactive and inconclusive: 27.3 µM [fluorescent]
- activity change, negative = inhibition [5, 14]: inconclusive: 1.08%
- Potency [6]: inactive

SMILES: CCCCCCCC/C=C\CCCCCCCC(=O)OC
- activation [1]: inconclusive: 7.53%
- Potency [7]: inconclusive: 2.44 µM [cytotoxic, single point]

SMILES: C=C(C)C(=O)OCCOc1ccccc1
- Potency [1]: inconclusive: 48.6 µM [fluorescent, partial curve]
- Potency [7]: inconclusive: 68.6 µM [cytotoxic, single point]

SMILES: CCCCOCCOCCSC#N
- Potency [1]: inactive
- Potency [7]: inconclusive: 23.9 µM [cytotoxic, partial curve, poor fit]

SMILES: OCC(CO)(CO)CO
- Potency [1]: inactive
- Potency [5, 14]: inactive

SMILES: CC1(C)O[C@@H]2C[C@H]3[C@@H]4CCC5=CC(=O)C=C[C@]5(C)[C@@]4(F)[C@@H](O)C[C@]3(C)[C@]2(C(=O)CO)O1
- Potency [1]: inactive
- Potency [8]: active: 3.5 nM and active: 3.9 nM and active: 3.8 nM
- activity change, negative = inhibition ([5]; at 42.5 µM (top of the series)): inconclusive: -18%
- activity change, negative = inhibition ([5]; at 92.4 µM (top of the series)): inconclusive: 11.1% and inconclusive: 16.7%
- Potency [7]: inconclusive: 33.5 µM [cytotoxic]

SMILES: O=C(OC(=O)c1ccccc1)c1ccccc1
- activation [1]: inconclusive: 7.17%
- activity, negative = inhibition [4]: inconclusive: 2.35%

SMILES: CCC(=O)C1CC(C(C)C)CC=C1C (stereo unspecified)
- Potency [1]: inactive
- Potency [2]: inactive

SMILES: CCC1CO1 (stereo unspecified)
- activation [1]: inconclusive: 11%
- Potency [3]: inactive

SMILES: CC(=O)OCC(C)OC(C)=O (stereo unspecified)
- Potency [1]: inactive
- Potency [9]: inactive
- Potency [7]: inactive

SMILES: C=C(C)c1ccccc1
- Potency [1]: inactive
- Potency [10]: inactive
- Potency [8]: active: 15.4 µM
- Potency [2]: inconclusive: 48.6 µM [rising, partial curve]

SMILES: Cn1cnc2ncnc(N)c21
- Potency [1]: inactive
- Potency [11]: inactive
- Potency [2]: inconclusive: 34.2 µM [rising, partial curve, poor fit]

SMILES: CCCCCCCCCC(=O)OCC
- Potency [1]: inconclusive: 12.2 µM [activator, full curve]
- Potency [10]: inactive
- Potency [8]: inactive

SMILES: Clc1ccc2nsnc2c1NC1=NCCN1
- Potency [1]: inactive
- Potency [3]: inactive

SMILES: C=CCCC=C
- Potency [1]: inactive
- Potency [10]: inactive
- Potency [8]: active: 19.9 µM
- activity change, negative = inhibition [5, 14]: inconclusive: 0.67%

SMILES: CCCCCCC(O)CCCCCCCCCCC(=O)O (stereo unspecified)
- Potency [1]: inconclusive: 54.5 µM [rising, partial curve]
- Potency [12]: active: 30.6 µM
- Potency [13]: inconclusive: 13.7 µM [rising, partial curve, poor fit]
- activation [8]: inconclusive: 12.5%
- activity change, negative = inhibition [5, 14]: inconclusive: -16.5% and inconclusive: -37.3%
- Potency [2]: active: 48.7 µM and active: 15.4 µM
- Potency [4]: inconclusive: 61.7 µM [rising, partial curve, poor fit]

SMILES: O=C(O)CCCCCCCC(=O)O
- Potency [1]: inconclusive: 60.9 µM [activator, partial curve, poor fit]
- Potency [10]: inactive
- activity change, negative = inhibition [5, 14]: inconclusive: 12.2%
- Potency [7]: inconclusive: 2.17 µM [rising, partial curve, poor fit]

SMILES: CC(=O)c1ccc(Cl)c(Cl)c1Cl
- Potency [1]: inactive
- activity, negative = inhibition [4]: inconclusive: -1.36%

SMILES: O=C(O)C1(C(=O)O)CCC1.[NH2-].[NH2-].[Pt+2]
- Potency [1]: inconclusive: 33.5 µM [rising, partial curve, poor fit]
- Potency [5, 14]: inactive
- Potency [6]: inactive

SMILES: CN1CCCC1=O
- Potency [1]: inconclusive: 50.2 µM [activator, partial curve, poor fit]
- Potency [5, 14]: inactive

SMILES: CCCc1ccc(OC)cc1
- activation [1]: inconclusive: 14.4%
- Potency [3]: inconclusive: 24.5 µM [falling, full curve]
- Potency [8]: inactive
- activity change, negative = inhibition [5, 14]: inconclusive: 6.95%

SMILES: Oc1ccc2ccccc2c1N=Nc1ccccc1
- Potency [1]: inconclusive: 68.6 µM [rising, partial curve, poor fit]
- Potency [10]: inconclusive: 61.1 µM [cytotoxic, partial curve] and inconclusive: 27.3 µM [cytotoxic, single point]
- Potency [5, 14]: active: 24.3 µM
- activity change, negative = inhibition [5, 14]: inconclusive: -46.6%
- Potency [2]: inconclusive: 27.3 µM [cytotoxic, single point]
- Potency [6]: inconclusive: 54.9 µM
- activity, negative = inhibition [4]: inconclusive: -10.1%

SMILES: Cc1ccc(Cl)c(N)c1Cl
- Potency [1]: inactive
- Potency [3]: inactive
- activation [8]: inconclusive: -11.9%
- Potency [5, 14]: inconclusive: 68.6 µM
- Potency [7]: inconclusive: 61.1 µM [cytotoxic]
- Potency [2]: inconclusive: 77 µM [cytotoxic, single point]
